PubChem BioAssay (Tox21)
“And” between values parts separate entries of the source, which are not always exact repeats. Equal entries are not always repeated. The inconclusive results got no clear call from the source; some entries with a clear call stand among them for comparison. Potencies beside an inconclusive call are fits to weak or partial responses and may not hold up. The source made the active and inactive calls. Unless noted, calls follow the shape of the dose curve; as a rule, active = well fitted activation curve with a large enough effect in the repeat runs; inconclusive = weak or mixed curves; inactive = flat fitted curve, though single readings scatter.

Experiment: qHTS assay to identify small molecule agonists of H2AX (AID 1224845; active = well fitted activation curve with a large enough effect in the signal ratio in the repeat runs, not every such curve was filed as active; inconclusive = weak or mixed curves; the % refers to the signal ratio)
Conditions: CHO-K1 phospho-H2AX Ser139 HTRF, 3 h; activation (H2AX phosphorylation): at 154 µM (top of the series) unless noted
Outline: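 Phospho-H2AX Ser139 measured by HTRF (ex 320 nm; em 665 and 620 nm) after 24 hr antibody incubation. Compounds, 15 concentrations, 0.76% DMSO, were applied to CHO-K1 cells for 3hr at 37C before lysis.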
% is scaled to controls: 0 for no effect and ±100 for the full control effect; potency is read from the fitted curve at half-maximal effect; tags tell the direction and shape of the fitted curve or compound fluorescence and quenching.

Structure (SMILES)	Potency	activation (H2AX phosphorylation)
CCC=CC#N	inactive	
OC[C@H]1O[C@@H](n2cnc3c(=S)nc[nH]c32)[C@H](O)[C@@H]1O	inconclusive: 6.95 µM [activator, full curve]	
Cc1cn[nH]c1	inactive	
OC[C@H]1O[C@@H]2O[C@H]3[C@H](O)[C@@H](O)[C@@H](O[C@H]4[C@H](O)[C@@H](O)[C@@H](O[C@H]5[C@H](O)[C@@H](O)[C@@H](O[C@H]6[C@H](O)[C@@H](O)[C@@H](O[C@H]7[C@H](O)[C@@H](O)[C@@H](O[C@H]1[C@H](O)[C@H]2O)O[C@@H]7CO)O[C@@H]6CO)O[C@@H]5CO)O[C@@H]4CO)O[C@@H]3CO	inconclusive: 53.4 µM [activator, single point]	
COc1cccc(N)c1	inactive	
Cn1cnc2ncnc(N)c21	inactive	
Fc1ccccc1	inconclusive: 102 µM [falling, single point]	
CCCCCCCC/C=C\CCCCCCCC(=O)OC	inactive	
C=C(C)[C@@H]1CCC2=CCC[C@@H](C)[C@]2(C)C1	inconclusive: 1.79 µM [falling, single point]	
O=C(O)Cc1ccc(OCCNC[C@H](O)c2ccccc2)cc1		inconclusive: 10.2% [at 70.9 µM]
NCCS(=O)(=O)O	inconclusive: 26.3 µM [cytotoxic, partial curve]	
COc1c(Br)cc(Br)c(C)c1Br		inconclusive: 7.6%
CCCCC[C@H](O)/C=C/[C@H]1[C@H](O)CC(=O)[C@@H]1C/C=C\CCCC(=O)O	inactive	
O=C(O)CCCCC(=O)O	inactive	
O=C(O)CCCCCCCC(=O)O	inactive	
COC(=O)Nc1nc2ccc(C(=O)c3ccccc3)cc2[nH]1	inconclusive: 49.2 µM [fluorescent, partial curve]	
O=C1Cc2ccccc2N1c1c(Cl)cccc1Cl	inactive	
Oc1ccc(Sc2ccc(O)cc2)cc1	active: 83.9 µM	

Structure (SMILES)	Potency	activation (H2AX phosphorylation)
CCOc1ccc2c(c1)C(C)=CC(C)(C)N2	inconclusive: 15.9 µM [activator, full curve, poor fit]	
c1ccc2cc3c4ccccc4c4ccccc4c3cc2c1	inconclusive: 101 µM [fluorescent, partial curve]	
CC(C)(C)C1=CC(=O)C=C(C(C)(C)C)C1=O	inactive	
OCC#CCO	inconclusive: 127 µM [activator, single point]	
Cc1cc(=O)oc2cc(O)ccc12	inconclusive: 89.8 µM [fluorescent, partial curve] and inconclusive: 56.6 µM [fluorescent, partial curve] and inconclusive: 39.1 µM [fluorescent, partial curve, poor fit]	
Cc1cc(O)cc2c1O[C@](C)(CCC[C@H](C)CCC[C@H](C)CCCC(C)C)CC2	inconclusive: 61.9 µM [inhibitor, single point]	
Nc1ccc([N+](=O)[O-])cc1O	inconclusive: 45 µM	
O=c1cc(-c2ccccc2)oc2ccc3ccccc3c12	inconclusive: 63.5 µM [fluorescent, partial curve]	
CC1CC(C)C(=O)C1=O (stereo not given)	inactive	
C#CCN(C)Cc1ccccc1	inactive	
O=S(=O)(O)CCCN1CCOCC1	inactive	
Cc1ccc(OC(=O)c2ccccc2O)cc1		inconclusive: 8.32%
CCOC(=O)c1ccc(O)c(O)c1	inconclusive: 61.9 µM [single point]	
COc1cccc(O)c1O	inconclusive: 105 µM [falling, partial curve]	
COC(=O)CS	inconclusive: 86.3 µM [rising, partial curve]	
COc1ccc(OC(F)(F)F)cc1CN[C@H]1CCCN[C@H]1c1ccccc1	inconclusive: 113 µM [activator, single point]	
CN(C)CCOC(c1ccccc1)c1ccccc1 (tested in a mixture with another compound)	inconclusive: 128 µM [activator, single point]	
CN(C)CCN1C(=O)c2ccccc2N(C)c2ccccc21	inactive	

Experiment: A CellTox Green Cytotoxicity Assay to monitor cytotoxicity in HEK293 cells - 40 hour (AID 1224871); also: nearly all actives have a fitted effect of over 45% in size
Conditions: CellTox Green fluorescence; series mostly up to 76.8 µM
Outline: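 Nonlytic real-time cytotoxicity: HEK293 + CellTox Green reagent plated, 5 h preincubation, pintool compound addition (23 nL in DMSO), 37 C for 40 h, fluorescence measured at successive time points.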

Structure (SMILES)	Potency
CCOc1ccc2c(c1)C(C)=CC(C)(C)N2	inconclusive: 61.4 µM [activator, partial curve, poor fit]
c1ccc2cc3c4ccccc4c4ccccc4c3cc2c1	inconclusive: 55.2 µM [activator, single point]
CC(C)(C)C1=CC(=O)C=C(C(C)(C)C)C1=O	inconclusive: 43.7 µM [activator, partial curve]
OCC#CCO	inconclusive: 24.9 µM [activator, single point]
Nc1ccc([N+](=O)[O-])cc1O	inactive
O=c1cc(-c2ccccc2)oc2ccc3ccccc3c12	inconclusive: 30.9 µM [activator, partial curve, poor fit]
Cc1ccc(OC(=O)c2ccccc2O)cc1	active: 49 µM
COC(=O)CS	inactive
COc1ccc(OC(F)(F)F)cc1CN[C@H]1CCCN[C@H]1c1ccccc1	inconclusive: 54.9 µM [activator, single point]
